Measurements from PubChem BioAssay AID1745845 (National Center for Advancing Translational Sciences (NCATS), 2022).
The whole screen tested about 360,000 compounds, of which about 2,600 (0.72%) were called active. Inconclusive means that the source gave no clear call. Such entries were picked first, then a sample of the others. Calls come from the whole dose curve; as a rule, active = well fitted inhibition curve with a large enough effect; inconclusive = small, poorly fitted or top-dose-only effect; inactive = no such curve, though single readings can be large or run the other way. Potencies beside an inconclusive call are fits to weak or partial responses and may not hold up.

Assay: Primary qHTS for Inhibitors of ATXN expression; note: nearly all actives have a fitted effect of over 55% in size
Conditions: HEK-293 ATXN2-luciferase reporter, luminescence, 24 h; activity change, negative = inhibition: at 57 µM (top of the series)
Method in brief: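 qHTS (up to 57 uM final) was run with 24 h compound exposure of reporter cells at 37 °C. Each well was multiplexed: SteadyGlo luminescence measured ATXN2-luciferase expression after a fluorogenic Gly-Phe-AFC viability readout (25 uM final).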
% is set by controls: 0 for no effect and ±100 for the full control effect; potency is the fitted concentration of half-maximal effect; tags give direction and shape of the fitted curve.

Potency, inactive:
Cc1cccc(N(CC(=O)Nc2ccc(Br)cc2)S(C)(=O)=O)c1C
O=C(O)c1cc(-c2ccco2)nc2cc3ccccc3cc12
O=[N+]([O-])c1ccc(N2CCN(C(=S)Nc3ccc(F)cc3F)CC2)cc1
CC(C)(C)C(=O)Nc1ccc(/C=C/C(=O)c2ccco2)cc1
Cc1ccc2c(=O)cc(CSc3ccccc3)[nH]c2c1C
S=c1[nH]nc(-c2ccccc2)n1/N=C/c1ccc(-c2ccccc2Cl)o1
CCOC(=O)CCCCC(=O)c1[nH]c(=O)[nH]c1CSc1nc(-c2ccccc2)c(C#N)c(=O)[nH]1
O=C(Nc1ccc(N2CCOCC2)cc1)c1ccc([N+](=O)[O-])cc1
CCc1cccc(C)c1NC(=O)c1cc(C)nc2c1c(C)nn2-c1cccc(Cl)c1C
CCOC(=O)C1=C(CS(=O)(=O)c2ccc(Br)cc2)NC(=O)NC1c1ccccc1 (centres undefined)
COc1ccc2c(c1)CCc1c(C(=O)NCCc3ccc(OC)c(OC)c3)noc1-2
NC(=O)CC(NC(=O)c1ccccc1)c1ccc(N2CCc3ccccc3C2)c([N+](=O)[O-])c1 (centres undefined)
C[C@H]1CN([C@@H](C)CO)C(=O)CCCn2cc(nn2)CO[C@@H]1CN(C)C(=O)Nc1ccc(C(F)(F)F)cc1
O=C(CSc1nc2c(oc3ccccc32)c(=O)n1Cc1ccco1)Nc1cccc(Cl)c1
CCOc1ccc(/C=N/NC(=O)c2cc(-c3cccn3C)n[nH]2)cc1
Cc1ccc(-c2nn(-c3ccccc3)cc2/C=N/NC(=O)c2ccc(Br)o2)cc1
Cc1ccc(/C=N/NC(=O)CCCOc2ccc(Cl)cc2Cl)cc1[N+](=O)[O-]
COc1ccc(-c2[nH][nH]c(=O)c2NC(=O)c2ccccc2Br)cc1
COc1cc2c(cc1NC(=O)Cc1ccc(C)cc1)oc1ccccc12
COC(=O)/C(=C\Nc1ccc(Cl)cc1Cl)NC(=O)c1ccc(OC)cc1
Cc1ccc(-n2c3nc(=O)n(C)c(=O)c-3cc3c(Cl)cccc32)c(C)c1
O=C(COC(=O)C12CC3CC(CC(Cl)(C3)C1)C2)Nc1ccccc1
O=C(Cc1cccs1)Nc1cccc(-c2nc3cc4ccccc4cc3[nH]2)c1
COC(=O)c1ccc(NC(=O)CCNS(=O)(=O)c2cccc3nsnc23)cc1
CCC12CN3CC(C)(CN(C1)C3c1c(C)n(C)c3ccccc13)C2=O (centres undefined)
Cc1ccccc1NC(=S)N(CCN1CCCCCC1)Cc1cccs1
Cc1ccc(CNCC(O)(c2ccccc2)c2ccc(F)cc2)cc1 (centres undefined)
Cc1cc(SCC(=O)c2cc3ccccc3o2)nc2ccccc12
CC1Cc2cc(S(=O)(=O)NCCc3ccccc3)ccc2N1C(=O)C1CC1 (centres undefined)
CC(Sc1ccc(Cl)cc1)C(=O)NCC(c1ccco1)N1CCCCC1 (centres undefined)
O=C(OCC1OC(n2cnc3c(N(C(=O)c4ccccc4)C(=O)c4ccccc4)ncnc32)C(O)C1F)c1ccccc1 (centres undefined)

Potency, inconclusive:
O=C(Nc1ccc(CN2CCOCC2)cc1)c1ccc(-c2cc(Cl)ccc2Cl)o1 20 µM [inhibitor, partial curve, poor fit]
C[C@@H]1CN([C@H](C)CO)S(=O)(=O)c2ccc(Br)cc2O[C@@H]1CN(C)C(=O)Nc1ccc(C(F)(F)F)cc1 39.8 µM [inhibitor, single point]
COc1ccccc1C(=O)NNC(=S)NC(=O)c1cc(OC)c(OC)c(OC)c1 8.44 µM [inhibitor, full curve, poor fit]
COc1cc(/C=C2\SC(c3ccc(C)cc3)=NC2=O)ccc1O 39.8 µM [inhibitor, single point]
O=C(NCC(c1cccnc1)N1CCN(Cc2ccccc2)CC1)C(=O)Nc1ccc(Cl)cc1 (centres undefined) 20 µM [inhibitor, partial curve]
CCCCOC(=O)n1c(=O)oc2cc(S(=O)(=O)N3CCCCC3)ccc21 39.8 µM [inhibitor, single point]
CCCCCCNC(=O)c1cn(CC)c2cc(N3CCN(C)CC3)c(F)cc2c1=O 35.5 µM [inhibitor, single point]
CCN1/C(=C/c2ccc3cccc(C)c3[n+]2CC)Sc2ccccc21 3.16 µM [inhibitor, full curve]
O=C1N[C@H](Cc2ccccc2)COC(=O)[C@H](Cc2ccc(F)cc2)C/C=C\C[C@H]1CC(=O)N(CCO)Cc1ccccc1 35.5 µM [inhibitor, single point]
COc1ccc(Nc2ncc(C(=O)N3CCN(Cc4ccccc4)CC3)c3ccccc23)cc1 25.1 µM [inhibitor, single point]
COc1cccc2c1C(=O)c1c(O)c3c(c(O)c1C2=O)C[C@@](O)(C(=O)CO)C[C@@H]3OC1CC(N)C(O)C(C)O1 (some centres undefined) 1.68 µM [inhibitor, full curve]
CCCCN(C)C(=O)C(Cc1ccccc1)NS(=O)(=O)c1ccc2c(c1)c(=O)n(C)c(=O)n2C (centres undefined) 25.1 µM [inhibitor, single point]
COc1ccc(CN2CCN(Cc3nc4ccccc4s3)CC2CCO)c(C)c1C (centres undefined) 10 µM [inhibitor, partial curve, poor fit]
C=CCc1ccccc1OCC(O)CN1CCN(c2ccc(C)cc2)CC1 (centres undefined) 39.8 µM [inhibitor, partial curve, poor fit]
O=C(/C=C/C(Cl)(Cl)Cl)Nc1ccc(Cl)cc1 37.7 µM [inhibitor, single point]
COc1ccc(CNC(=O)c2sc(=O)n(Cc3ccccc3C)c2C)cc1 17.8 µM [inhibitor, partial curve, poor fit]
CCCc1ccc(-c2c(C)sc(NC(=O)c3ccnn3C)c2C#N)cc1 20 µM [inhibitor, partial curve, poor fit]
O=C(NC(=C(Cl)Cl)S(=O)(=O)c1ccc(Cl)cc1)c1ccccc1 25.1 µM [inhibitor, single point]
O=C(NCc1cccc(F)c1)C1=Cc2cc(Br)ccc2OC1 39.8 µM [inhibitor, single point]
COc1cccc(-c2nc(-c3ccc(NC(=O)c4cccnc4)cc3)no2)c1 39.8 µM [inhibitor, single point]
O=C(O)COc1ccc(-c2nccc(-c3ccccn3)n2)cc1 6.31 µM [inhibitor, full curve, poor fit]
CC(=O)NC(c1ccc(Cl)cc1Cl)c1ccc2cccnc2c1O (centres undefined) 3.16 µM [inhibitor, single point]
CCNc1nc(Nc2ccc(C)c(Cl)c2)c2cnn(C)c2n1 28.2 µM [inhibitor, partial curve]
CCNc1nc(CN2CCCCC2)nc2scc(-c3ccccc3)c12 15.8 µM [inhibitor, single point]
FC(F)Oc1ccc(-c2csc(NNC3=NCCCCC3)n2)cc1 25.1 µM [inhibitor, partial curve, poor fit]
CCN(Cc1ccc2c(c1)OCCO2)C(=O)CSc1nc(C)nc2sc(C)c(C)c12 39.8 µM [inhibitor, single point]
CC(=O)Nc1ccc(SC[C@H](Cc2ccccc2)N2CC[C@@H](C(C)(C)C)CCC2=O)cc1 39.8 µM [inhibitor, single point]
Cc1cc(C)n(-c2ccc(Oc3ccccc3)c(S(=O)(=O)O)c2)n1 6.7 µM [inhibitor, partial curve, poor fit]
O=C(Nc1ccc(C(F)(F)F)cc1)c1ccc(NC(=O)C2CCCO2)cc1 (centres undefined) 12.6 µM [inhibitor, partial curve]
Cc1ccc(-c2csc(NCCn3c(-c4ccncc4)nc4ccccc43)n2)cc1 39.8 µM [inhibitor, single point]
CCn1c(COc2c(C)cccc2C)nnc1SCC(=O)N1CCN(c2ccccc2)CC1 15.8 µM [inhibitor, partial curve, poor fit]
CN(C)CCCN1C(=O)c2cccc3c([N+](=O)[O-])ccc(c23)C1=O 17.8 µM [inhibitor, partial curve, poor fit]
CC(C)Oc1cc(NC(=O)CSCC(=O)Nc2cccc(C(F)(F)F)c2)c(Cl)cc1Cl 35.5 µM [inhibitor, single point]
CCOc1cc(NC(=O)CCl)c(OCC)cc1NC(C)=O 35.5 µM [inhibitor, partial curve, poor fit]

Potency, active:
Fc1ccc(-c2nnc(NC3=NCCCCC3)o2)cc1 3.98 µM
C#CCOCCOCCOCCNc1nc(N2CCN(C(=O)CCCCCCCCCCNC(=O)[C@H](CO)n3cc(CCCSC)nn3)CC2)nc(N2CCN(C(=O)CCCCCCCCCCNC(=O)[C@H](CCCN=C(N)N)n3cc(C[C@@H](C)CC)nn3)CC2)n1 11.2 µM

Activity change, negative = inhibition, inconclusive:
CCCCN(CC)CCNC(=O)c1cc2c(-c3ccc(Cl)cc3)nn(C)c2s1 -97.7% [inhibitor]

Activity change, negative = inhibition, inactive:
CC(=O)Nc1ccc(C(=O)N/N=C/c2ccccc2OCc2ccccc2)cc1 -11.7% [at 11.3 µM]
